Screen size: about 220,000 compounds; about 5,700 (2.6%) were called active. The inconclusive results got no clear call from the source; some entries with a clear call stand among them for comparison. Calls come from the whole dose curve; as a rule, active = well fitted inhibition curve with a large enough effect; inconclusive = small, poorly fitted or top-dose-only effect; inactive = no such curve, though single readings can be large or run the other way. Potencies beside an inconclusive call are fits to weak or partial responses and may not hold up.
target: Lysine-specific demethylase 5B (Homo sapiens) (UniProt Q9UGL1); test: Primary screen for KDM5B Histone Demethylases FDH-coupled qHTS; conditions: FDH-coupled NADH fluorescence (FDH is formaldehyde dehydrogenase); series mostly up to 57.7 µM; note: nearly all actives have a fitted effect of over 70% in size
Sequence of UniProt Q9UGL1 (Q9UGL1 whole entry, looked up, the tested form may be a part): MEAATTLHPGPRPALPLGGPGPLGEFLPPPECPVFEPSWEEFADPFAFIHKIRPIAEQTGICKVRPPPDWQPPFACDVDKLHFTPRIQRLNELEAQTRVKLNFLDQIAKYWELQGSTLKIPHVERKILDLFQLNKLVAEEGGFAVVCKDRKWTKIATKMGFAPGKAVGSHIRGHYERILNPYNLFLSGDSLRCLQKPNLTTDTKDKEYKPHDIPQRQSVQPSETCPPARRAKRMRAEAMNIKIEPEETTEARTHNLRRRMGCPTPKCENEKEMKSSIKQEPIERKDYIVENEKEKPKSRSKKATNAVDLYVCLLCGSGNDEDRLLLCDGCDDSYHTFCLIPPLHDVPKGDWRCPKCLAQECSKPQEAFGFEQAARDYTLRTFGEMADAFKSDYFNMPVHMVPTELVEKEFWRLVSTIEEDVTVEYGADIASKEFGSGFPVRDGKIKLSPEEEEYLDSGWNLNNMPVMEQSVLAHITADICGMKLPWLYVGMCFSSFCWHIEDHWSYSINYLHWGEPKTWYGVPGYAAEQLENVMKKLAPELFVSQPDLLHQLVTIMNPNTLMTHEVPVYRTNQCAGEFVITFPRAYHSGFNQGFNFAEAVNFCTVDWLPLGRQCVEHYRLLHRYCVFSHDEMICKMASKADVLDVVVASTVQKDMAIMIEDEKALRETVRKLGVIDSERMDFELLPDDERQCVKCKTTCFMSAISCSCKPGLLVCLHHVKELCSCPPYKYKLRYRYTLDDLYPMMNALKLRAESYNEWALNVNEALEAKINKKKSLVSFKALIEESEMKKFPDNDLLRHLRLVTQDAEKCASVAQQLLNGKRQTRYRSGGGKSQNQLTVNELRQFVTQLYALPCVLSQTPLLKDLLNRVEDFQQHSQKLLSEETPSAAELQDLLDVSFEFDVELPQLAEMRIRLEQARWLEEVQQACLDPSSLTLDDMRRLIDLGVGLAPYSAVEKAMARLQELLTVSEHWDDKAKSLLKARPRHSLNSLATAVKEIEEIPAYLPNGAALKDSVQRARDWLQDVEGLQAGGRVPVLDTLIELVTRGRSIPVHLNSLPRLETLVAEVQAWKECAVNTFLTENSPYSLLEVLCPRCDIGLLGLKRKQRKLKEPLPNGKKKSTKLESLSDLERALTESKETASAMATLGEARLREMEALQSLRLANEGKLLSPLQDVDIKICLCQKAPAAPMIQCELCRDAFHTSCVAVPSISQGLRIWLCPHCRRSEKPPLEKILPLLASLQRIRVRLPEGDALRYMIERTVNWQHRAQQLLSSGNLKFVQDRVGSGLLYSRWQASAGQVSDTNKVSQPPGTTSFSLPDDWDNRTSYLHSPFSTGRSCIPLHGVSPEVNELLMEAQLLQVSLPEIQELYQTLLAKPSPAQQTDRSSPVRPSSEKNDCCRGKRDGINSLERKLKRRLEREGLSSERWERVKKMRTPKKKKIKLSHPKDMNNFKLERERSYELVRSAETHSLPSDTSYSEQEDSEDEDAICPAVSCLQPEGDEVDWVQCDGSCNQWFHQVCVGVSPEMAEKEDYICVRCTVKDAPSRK
Summary of the method: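 Inhibition is measured as reduced NADH fluorescence generation from FDH coupling to formaldehyde release. Truncated KDM5BΔAP at 200 nM final acts on H3K4me3 peptide (12.5 µM in substrate mix) in pH 7.5 HEPES buffer with Tween-20, 30 min, room temperature.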
Potency is the fitted concentration of half-maximal effect; tags give direction and shape of the fitted curve.

| Structure (SMILES) | Potency |
| --- | --- |
| C=C(C)CN1CCN(CCC(=O)O)CC1 | inactive |
| COc1cccc(-c2nc3c(C#N)c[nH]n3c2NC2CCCC2)c1OC | inconclusive: 12.6 µM [inhibitor, partial curve, poor fit] |
| CCN(CCCNC(=O)c1cc2c(=O)n(CC)c3ccccc3c2s1)Cc1ccccc1 | inconclusive: 35.5 µM [inhibitor, partial curve, poor fit] |
| O=C(NC1CCCCC1)N[C@H]1CO[C@H]2[C@@H]1OC[C@@H]2n1nnnc1-c1ccc2c(c1)OCO2 | inconclusive: 22.4 µM [inhibitor, partial curve] |
| CN1CCC(C(=O)N2CCN(C3CCNCC3)C(=O)C2)CC1 | inconclusive: 89.1 µM [inhibitor, partial curve, poor fit] |
| COc1ccc(-c2noc(C(=O)NC3CC3)c2[C@H](C)O)cc1 | inactive |
| Cc1ccc(S(=O)(=O)NC[C@H]2O[C@@H](CC(=O)NCc3ccc(F)cc3)[C@H](O)[C@@H]2O)cc1 | inconclusive: 8.91 µM [inhibitor, partial curve, poor fit] |
| COC(=O)CN1C(C(=O)c2ccccc2)=C(OC(=O)c2ccc(F)cc2)c2ccccc2S1(=O)=O | inconclusive: 1.26 µM [inhibitor, partial curve, poor fit] |
| CC(C1=C(O)CC(C)(C)CC1=O)C1=C(O)CC(C)(C)CC1=O | inactive |
| Cc1ccc(S(=O)(=O)c2cnc(SCC(=O)Nc3ccc4c(c3)OCCO4)[nH]c2=O)cc1C | inactive |
| CCC(C)c1ccc(NC(=O)CCc2ncc(-c3ccccc3)o2)cc1 (stereo not drawn) | inactive |
| Cc1ccnc(NCCNC(=O)C2CCC(=O)N(CC3CCCCC3)C2)c1 (stereo not drawn) | active: 28.2 µM |
| CC(C)Cn1c(=O)[nH]c(=O)c2c(C(=O)O)cc(C3CC3)nc21 | inconclusive: 39.8 µM [inhibitor, single point] |
| O=C(Nc1ccc2c(N3CCCC3)ncnc2c1)c1cc(F)ccc1Cl | inconclusive: 17.8 µM [inhibitor, partial curve, poor fit] |
| Cc1cc(=O)c(C(=O)N2CCC3(CC2)CC(C(=O)O)N(C)C3)c(C)[nH]1 (stereo not drawn) | inconclusive: 11.2 µM [inhibitor, partial curve] |
| N#Cc1cnn2c1NC1=C(C(=O)CCC1)C2c1ccccc1 (stereo not drawn) | inconclusive: 31.6 µM [inhibitor, partial curve, poor fit] |
| COc1ccccc1N(CCC#N)C(=O)CN(C)CC(=O)Nc1ccccc1Cl | inactive |
| CCCCc1cc(C(=O)Cc2ccccn2)c(O)cc1O | inconclusive: 28.2 µM [inhibitor, partial curve, poor fit] |

Source: PubChem BioAssay AID1347165 (National Center for Advancing Translational Sciences (NCATS), 2019)
